PubChem BioAssay AID1159614 (National Center for Advancing Translational Sciences (NCATS), 2016)
Screen size: about 45,000 compounds; about 65 (0.1%) were called active. Calls follow the shape of the dose curve; as a rule, active = well fitted activation curve with a large enough effect; inconclusive = small, poorly fitted or top-dose-only effect; inactive = no such curve, though single readings can be large or run the other way. The list shows a part of the results.

molecular target: Galactocerebrosidase (Homo sapiens) (UniProt P54803); assay: A Novel Cell-Based Assay to Identify Small Molecules for B -Galactocerebrosidase; conditions: 145M-Twi-hGALC-G270D cells (Twitcher mouse brain line with human GALC G270D), HMU-beta-Gal fluorescence, 48 h; series mostly up to 57.5 µM; activation: at the top concentration; also: 0% is about no effect; nearly all actives have a fitted effect of over 65% in size
Outline: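 Mutant human GALC (G270D), stably expressed in a Twitcher mouse brain cell line lacking endogenous GALC, is measured in live-treated cells via 6-hexadecanoylamino-4-methylumbelliferyl-β-galactoside hydrolysis (0.1 mM final, pH 5.2) with fluorescent detection.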

UniProt P54803, sequence (P54803 whole entry, looked up): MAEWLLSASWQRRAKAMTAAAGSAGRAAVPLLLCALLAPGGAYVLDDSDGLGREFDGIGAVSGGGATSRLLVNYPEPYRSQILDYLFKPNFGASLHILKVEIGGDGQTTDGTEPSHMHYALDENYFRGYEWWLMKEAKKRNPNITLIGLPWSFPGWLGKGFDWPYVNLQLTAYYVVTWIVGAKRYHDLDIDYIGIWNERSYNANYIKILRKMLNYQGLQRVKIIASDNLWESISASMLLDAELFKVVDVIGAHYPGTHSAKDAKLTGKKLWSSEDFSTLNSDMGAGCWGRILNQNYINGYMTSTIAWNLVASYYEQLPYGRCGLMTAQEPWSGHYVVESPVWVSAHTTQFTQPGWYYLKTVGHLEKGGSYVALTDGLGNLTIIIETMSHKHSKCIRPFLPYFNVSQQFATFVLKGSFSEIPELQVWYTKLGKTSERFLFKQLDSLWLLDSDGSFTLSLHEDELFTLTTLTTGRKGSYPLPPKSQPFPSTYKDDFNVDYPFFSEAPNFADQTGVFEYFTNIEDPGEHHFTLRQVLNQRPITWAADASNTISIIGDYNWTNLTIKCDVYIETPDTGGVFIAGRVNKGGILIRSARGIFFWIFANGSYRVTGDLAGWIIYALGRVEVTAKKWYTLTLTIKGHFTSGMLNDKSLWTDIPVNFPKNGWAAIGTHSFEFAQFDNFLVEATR

SMILES	activation
CCOc1ccc(C(=O)NCC(c2ccc3c(c2)OCO3)N2CCN(c3ccc(F)cc3)CC2)cc1 (stereo not drawn)	inactive: -16.3%
CC(=O)Nc1ccc(NS(=O)(=O)c2ccc3[nH]c4c(c3c2)CCCCC4)cc1	inactive: -5.21%
COc1ccc(CCN2C(=O)N(c3ccc(F)cc3)C(=O)C2CC(=O)Nc2ccc(OC)cc2)cc1 (stereo not drawn)	inactive: -14.2%
CCc1ccccc1NC(=O)N1CCC2(CC1)Oc1ccccc1C(=O)N2Cc1ccccc1F	inactive: -4.71%
CCCC(CCC)C(=O)Nc1cccc(-c2nc3cccnc3s2)c1	inactive: -4.19%
Cc1ccc(-n2nc3c(N4CCC(C(=O)NCCc5ccccc5C)CC4)nnc(C)c3c2C)cc1	inactive: -14.8%
CCCCC1C(=O)N(c2ccccc2)N(c2ccccc2)C1=O	inactive: -9.25%
COc1ccc(Cl)cc1NC(=O)CCN1C(=O)c2ccccc2Sc2ncccc21	inactive: -12.2%
CCOC(=O)c1ccccc1NC(=O)CSc1cc(C)[nH]c(=O)n1	inactive: -5.1%
CC(=O)N1CCc2cc(S(=O)(=O)NC(CC(C)C)C(=O)NCCc3ccccc3)ccc21 (stereo not drawn)	inactive: -9.74%
CC(C)(C)c1cc(C(C)(C)C)c2oc(=O)c(-c3nc4ccc(C(=O)O)cc4[nH]3)cc2c1	inactive: -15.9%
COc1cc(OC)c(NC(=O)N2CCN3CCCCC3C2)cc1Cl (stereo not drawn)	inactive: 0.936%
Cc1ccc(Nc2nc3ccccc3c3nnc(C)n23)cc1Cl	inactive: 3.65%
Cc1cc(C)c2c(=O)cc(CSc3nnc(-c4ccccc4)n3C)[nH]c2c1	inactive: -6.23%
COc1cc(-c2nnc(SCC(=O)Oc3ccccc3)o2)cc(OC)c1OC	inactive: -9.12%
COc1ccc(OC)c(Nc2ncc3c(n2)CCN(Cc2cc(OC)c(OC)c(OC)c2)C3)c1	inactive: -19.7%
CC(C)C(=O)N1c2nc(C(C)C)nn2C2(CCCCC2)[C@@H]2CCCC[C@@H]21	inactive: -18.8%
CC(=O)c1ccc(NC(=O)CSc2nnc(NC(=O)Nc3ccccc3)s2)cc1	inactive: -6.21%
COc1ccc(OC)c(NC(=O)Cc2c(C)n(C(=O)c3ccc(Cl)cc3)c3ccc(OC)cc23)c1	inactive: -4.28%
COc1ccc(Cl)cc1NC(=O)c1ncn(-c2ccccc2)n1	inactive: -25.2%
CCOC(=O)c1cnc2ccc(C(=O)OC)cc2c1Nc1ccc(N2CCOCC2)cc1	inactive: -5.14%

SMILES	activation
CCc1ccccc1Nc1ncnc2c1cnn2-c1ccc(Cl)cc1	inactive: -31%
O=C(CO)[C@@H](O)[C@H](O)[C@@H](O)CO	inactive: -18.4%
CCOc1ccc(CCNC(=O)c2ccc(CS(=O)(=O)c3ccccc3C)o2)cc1OCC	inactive: 1.68%
COC(=O)c1ccc(Cn2c(SCC(=O)NCc3ccccc3)nc3ccccc32)cc1	inactive: -20.5%
CSCCC(NS(=O)(=O)c1cccs1)C(=O)Nc1ccc(C)c(Cl)c1 (stereo not drawn)	inactive: -16.6%
CCc1ccccc1NC(=O)c1sc2nc3n(c(=O)c2c1C)CCC3	inactive: -17.5%
COc1cc(CN(C(=O)c2ccc(OC(C)C)cc2)C2CCS(=O)(=O)C2)cc(OC)c1OC (stereo not drawn)	inactive: -22.3%
CCN1CCOC(=O)C1CC(=O)Nc1ccc(C(C)=O)cc1 (stereo not drawn)	inactive: -2.23%
CC(=O)c1cccc(NC(=O)CN2C(=O)c3cccnc3Sc3ccccc32)c1	inactive: -6.11%
CCc1ccc(NC(=O)Cn2c(=O)n(-c3ccccc3)c(=O)c3ccc(C(=O)NCc4ccc5c(c4)OCO5)cc32)cc1	inactive: 9.74%
Cc1ccc(C)c(Cn2c(=O)n(Cc3ccco3)c(=O)c3oc4ccccc4c32)c1	inactive: 1.92%
N#CC1(c2ccc(F)cc2)CCC(=O)CC1	inactive: -9.87%
CN(C)c1cc2c(cc1NC(=O)c1ccc(F)cc1)n(C)c(=O)n2C	inactive: 5.34%
CCOc1ccc(CNC(=O)c2ccc(NC(=O)N3CCSc4ncccc43)cc2)cc1OC	inactive: -8.8%
COc1cccc(Cn2c(C)c(CNCc3ccccc3Cl)c(C(=O)O)c2C)c1	inactive: -12.3%
Cc1ccccc1OCc1ccc(-c2nc(C#N)c(N3CCN(c4ccccc4)CC3)o2)o1	inactive: -23.6%
O=C(NCCCc1nc2ccccc2n1Cc1ccccc1)C1CCCCC1	inactive: -6.14%
Cc1cccc(-c2nnn3c2nc(NCc2ccccc2)c2ccccc23)c1	inactive: -7.56%
CNC(=O)C1CCN(Cc2cc3ccccc3n2Cc2cccc(C)c2)CC1	inactive: -8.85%
CC(C)CCNC(=O)C1CCN(S(=O)(=O)c2cccc3nsnc23)CC1	inactive: -5.36%
CCc1ccc(-c2cc(C)no2)cc1S(=O)(=O)Nc1ccc(C)cn1	inactive: -0.719%

SMILES	activation
COc1ccc(NC(=O)CCS(=O)(=O)c2nc(-c3ccc4c(c3)OCO4)cc(C(F)(F)F)n2)c(OC)c1	inactive: -11.8%
O=C(O)c1ccc2c(c1)N(Cc1ccc(F)cc1Cl)C(=O)c1ccccc1S2	inactive: -3.58%
COc1ccc(CCNC(=O)c2cc(S(=O)(=O)N3CCCC(C)C3)cn2C)cc1OC (stereo not drawn)	inactive: -6.15%
CC(C)N(Cc1ccccc1)C(=O)CN1C(=O)COc2ccc(S(=O)(=O)N3CCCCCC3)cc21	inactive: -2.75%
CCN(C(=O)c1cnc(N2CCOCC2)c2ccccc12)c1cc(C)ccc1C	inactive: -6.48%
CC(CNC(=O)CCCn1c(=O)c2cccn2c2ccccc21)c1ccccc1 (stereo not drawn)	inactive: -15.2%
O=C(OCc1cc(=O)n2nc(-c3cccs3)sc2n1)c1ccccc1Br	inactive: -8.54%
CC(=O)Nc1ccc(NC(=O)CCC(=O)c2ccc(C)cc2)cc1	inactive: -18%
COc1cccc(CNc2nc3c(-c4cccc(C)c4)nnn3c3ccccc23)c1	inactive: -11%
CCOc1ccc(-c2nnc(SCC(=O)NCCc3ccccc3)nc2-c2ccc(OCC)cc2)cc1	inactive: -15.1%
Cc1cc(NC(=O)C(C)(C)Oc2ccc(Cl)cc2)cc(-c2nc3ncccc3o2)c1O	inactive: 10.8%
CCOc1ccccc1NC(=O)c1ccc2c(Cl)c3c(nc2c1)CCCC3	inactive: -16.3%
CCN(CC)c1nc(-c2ccccc2Cl)c2cc(Br)ccc2n1	inactive: -17%
O=C(C1CC1)N1CCN(c2nc3c(F)cc(F)cc3s2)CC1	inactive: -15.6%
Cc1nn(-c2ccccc2)c2nc(C3CC3)cc(C(=O)NCc3ccccc3Cl)c12	inactive: -9.01%
Cc1cccc(CNC(=O)c2sc3ncnc(N(C)C4CCCCC4)c3c2C)c1	inactive: -5.36%
CCc1ccc(NC(=O)c2sc3nc(C)c(Cl)c(C)c3c2NC(=O)c2ccccc2)cc1	inactive: -3.57%
COc1ccc(C)cc1NC(=O)CCNS(=O)(=O)c1cccc2nonc12	inactive: -24.5%
Cc1cc(Cl)ccc1OCC(=O)N(Cc1ccc(N(C)C)cc1)CC1CCCO1 (stereo not drawn)	inactive: 0.539%
CC(C)Nc1ccc(-c2nc(-c3ccccn3)no2)cc1[N+](=O)[O-]	inactive: -2.94%
CCCn1c2ccccc2c2cnn(CC(=O)Nc3ccc(C)cc3Br)c(=O)c21	inactive: -9.98%
